According to the supplement of paper PMC10681739:
The full ranking holds about 4,000 sequences; the median of “arbitrary fluorescence units” is about 830, and the highest 2% start at about 6,500. The list lacks most of the strong results.

Each sequence was assayed against RUNX1 (UniProt Q01196) (assay: RUNX1 binding intensity (PBM fluorescence), RUNX1 alone (arbitrary fluorescence units); higher = stronger binding). Conditions: RUNX1 concentration 2 nM; ETS1 concentration 0 nM.
Protocol: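 gcPBM on 36-bp genomic-derived probes (partner site mutated) containing one RUNX1 site and no ETS1 site. Recombinant human RUNX1 (2 nM) was incubated alone or with ETS1 (25 nM) and detected by anti-RUNX1 antibody fluorescence. Values are medians over 4 replicate spots (not normalised). The probes sit in constant array flanks that are not printed.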
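Further: Full-length recombinant human RUNX1 bound to double-stranded DNA microarray spots, detected with an Alexa488-labelled secondary antibody after the anti-RUNX1 primary, read as scanned spot fluorescence.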

UniProt Q01196, sequence (Q01196 whole entry): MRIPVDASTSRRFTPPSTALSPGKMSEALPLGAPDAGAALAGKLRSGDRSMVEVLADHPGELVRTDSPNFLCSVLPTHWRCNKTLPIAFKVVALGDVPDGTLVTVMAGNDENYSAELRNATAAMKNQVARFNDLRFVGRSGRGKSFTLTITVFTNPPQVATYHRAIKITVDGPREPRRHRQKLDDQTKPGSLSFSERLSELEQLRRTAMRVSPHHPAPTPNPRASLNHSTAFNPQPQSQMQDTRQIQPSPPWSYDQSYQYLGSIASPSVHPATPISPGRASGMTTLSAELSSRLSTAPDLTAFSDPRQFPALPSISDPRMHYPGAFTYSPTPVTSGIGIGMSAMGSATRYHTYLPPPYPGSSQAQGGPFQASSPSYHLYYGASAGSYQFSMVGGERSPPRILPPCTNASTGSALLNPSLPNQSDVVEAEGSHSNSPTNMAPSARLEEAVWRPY

Row | Sequence | RUNX1 binding intensity
1 | GTTGTCCGTGACCACCAGCCCCAAAGGAATTGCCCT | 1030
2 | GTAATCACAGGCCGCAGAGTTCCAGGCTGCTCCGTG | 771
3 | CGCCGAACTTTCGGCAGTAAATTCCGTGGTTTCCCT | 882
4 | ACCCCAGCCTGATCCTCTGCTTATCTCCCACATGCA | 1200
5 | CCGCCAACCGCAGGGCCGCGACACGGACGGCAAGCA | 3530
6 | CAGCAATACCACAAGCTGTTTAAGGACGTTCCCTTG | 1560
7 | TTGAAAAGGACGTTCATTTGTACTGAGGTGGTTTTA | 706
8 | TGGCTGGAATCTCCGGACTGAAAAACCGCTGTCCTA | 761
9 | GCGGCTCTGAGGTACCGCCAGCGGAATCGGGCAGAG | 714
10 | AGCTAGGACAGCATGTGAAAACCACACTGACAAAGT | 922
11 | GAACACGGAGACACTGAGCTTTTACTTTGACCACAC | 858
12 | GCCACTGCCTGGAAAACAGTAATTACCACACGTCTC | 990
13 | GGTGGACCTGTGGTTTGCAACACAGAAAGAGGCGGC | 1290
14 | GTGACCACTGCCTAGTTACTGCCAGCTGAACGAAGG | 729
15 | GGTGGACCTGTGGTTTGCAACACAGAAAGAGGTGGC | 1580
16 | CTCAGCCCACCGCTGCGCGGCCGAAAGTCGGAGGTT | 760
17 | AGTTTCTTCTTTCAGGTGGGTTTGTGGTCTTGCTGA | 1040
18 | CCAGACCCGGCTGAACTACCGTGCCCACAAGGCAGC | 820
19 | GACAGAGGCAACTAGGTGTGACAACCACAAACAGCT | 921
20 | AGATCTTATAAGCCGCACAGGCCGTAAGGAAAAGGG | 716
21 | GTCTTACTGCCTGTCCCCGCCCACCGCGACTGTCTT | 1470

Row | Sequence | RUNX1 binding intensity
22 | GTTCATCCAGGCAACCCCAACCCAGTGCCGCAGTAT | 888
23 | CAGGAGAACCCACAATGCACCGAAACTGCCGCCCCC | 1230
24 | GTCCCTGTTTCATCCCTCAGCTCCCGCAACCTCCGG | 1900
25 | GCGGCGAACCTGACGCCCCAACCACCCGCCCCCCAC | 1020
26 | AGACTCCATACGCCATGTTGGATGCCGCAGATTCGC | 781
27 | ATGGGACGAAGAGACAGAGGCCTGACCACTAAGTGG | 676
28 | TCCCGGCGTTCTTCAGCTGGCTCAGCCGCAAGTACC | 772
29 | AGGCCGTGCAGCAAATGAGACCCACAGCCACGTCAC | 787
30 | GGGGACGGCCCCACAGCTCCCGTACGCCACGGCCAG | 805
31 | GCGCAGAGGACCGCGGCGACCGTAAAAGCAAGGCAG | 705
32 | GAAATTTGCGCTTTCTTTCTGCAGCAGGAACCGCGG | 683
33 | GAGGGGTGGGCCGCAGGCGCCGAACGTGACGTAAGC | 692
34 | GATGTGGGTAAGAGAAGCAGGCACACGATGCTGCCC | 714
35 | GGAGGAGGTGACACCCACCCACTGCCCCCGCAAGGT | 804
36 | GGACCCACAGCCGTGTGGGCAGCCTCAGAATGAGCT | 743
37 | GGGTTGGTGGTTATCAGCGGGGGGAGGTAGGAGGTG | 1140
38 | GGGGGGGTGCGGTCCTGGTCGGGAGGAGGTGGAGAG | 869
39 | AAGGCAAACAGCAAATCATAACCACAAACCAGGAAC | 1880
40 | GCCTCCTCACCGCAGTGAGCAGATCCCCTTGGGTTG | 2170
41 | ACACCACTCATGAAGACAAAGCCACACCTCACACCG | 1260
42 | CCCGAAAACTCAACTGCCCACTGCTGCGGCCGCCAT | 974

Row | Sequence | RUNX1 binding intensity
43 | GCACACACACAGCCTCCCGGCCCGGCCGCAGCCGCT | 839
44 | GGGGCACGAAACAGCGTCCTGCGCGGGTAGCCCCTG | 664
45 | AGCACCCCCTTGCGGTGTCTGGAGCAAGCGGCGCGG | 826
46 | ACACGCACCATCTCCCGACTTTCGCGGTGTCCCAGG | 957
47 | TCGCTCCCTGCTCCACTTCTCGGCGCCCACATCTCC | 1540
48 | TTTCACTCCCGGCATGTTTTTCACCCACAGGGATAT | 1100
49 | TGCGCGGCCGCAGGGGCCAGACCCTGACGGCTCCAG | 734
50 | TTGCTAGAGGAGGCGCTGCCCCGGCAGCCGCAGCCA | 777
51 | TCACGTGACCGCGCTCCGGTAACTGAAGAAACAAGA | 909
52 | AGAAAGAAACCGCGAGGCAAACGGCAGTATATAGGA | 2030
53 | ATATAGAATCTTACCACAATCACTTGCTGAGTCTAT | 1370
54 | CAAGCACATTACGTAAGAGGCTGACCGCAAATACGA | 4800
55 | GTTTAACATGAAACCCTGCAGACCACAGGTTCTGTC | 911
56 | GGCCCCAACGCGGTTAGCGCTTGCGAAAACTCCCCC | 1060
57 | AGGACGGGCGAAAGTGGCTGCGGTGGATGGTGGGAG | 788
58 | CGAGCAGCGGTTGCCGCGGGGGGGGAACAAACAGGC | 775
59 | CTTTTCGCGTTGTGGCTGGGACTTTCGCTCCGCCAT | 886
60 | CCAGAGACCACAGCCACTCTCTTCTCCCCATCAGCC | 1570
61 | TGTTTTTGTCTCCGTTTACAAACCACAACAAAGGTG | 1670
62 | TTTGCAAAACCACTGCGGAGACTCCCGGTGGCCTAG | 704
